The other results are listed elsewhere or left out. No stated cut-off is given here; in the data, active = 3.2 or more and inactive = the rest. Most of these values are background signal.
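Further: displayed peptides selected on beads carrying the immobilized SH2 domain, with library peptides lacking any tyrosine serving as negative controls.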

The target of one experiment is SHP2 C-SH2 domain E139D. The experiment in a line: enrichment score (SH2-bound / input frequency) (ratio); bacterial display of known human phosphotyrosine sites (pTyr-Var adds point mutants) read by sequencing; higher = stronger binding; tyrosines were phosphorylated by kinases first. As to conditions: peptide library: Human pTyr.
As for VGEEEHVYSFPNKQK [PAXI_HUMAN_118], the enrichment score was inactive: 0.834.
As for DENGSKGYAFVHFET [PABP4_HUMAN_140], the enrichment score was inactive: 2.97.
Consider KMLCEQYYLVAPELE [PDK3_HUMAN_212], for which the enrichment score is inactive: 1.38.
Take VLQRTLHYECIVLVK [NUDT5_HUMAN_74]: the enrichment score was inactive: 1.96.
The same measure, in the same setting: in the case of VQKFQVAYLGNVPVA [APBB1_HUMAN_547_YA] it was inactive: 1.18; in that of YIGSTLSYFGLAAVF [P2RX7_HUMAN_343], inactive: 2.48; in that of TMMSVDRYIAVCHPV [OPRK_HUMAN_157], inactive: 1.61.
On the same count and under the same terms, in the case of GAEISGNYTKGGPDF [NUDC2_HUMAN_145] it was inactive: 0.583.
NENTEDQYSLVEDDE [P85A_HUMAN_607]: the enrichment score is inactive: 1.11.
In the case of KVVDDEIYAFRKPIV [PB1_HUMAN_1289_YA], the enrichment score was inactive: 0.946.
In the case of SPAGRSIYNSFYVYC [PARK2_HUMAN_143], the enrichment score is inactive: 2.71.
As for MELQTARYHGHSMSD [PDHA1_HUMAN_289_YA], the enrichment score was inactive: 0.64.
Turning to TSGQVEEYDLDADDI [AQP1_HUMAN_253], the enrichment score was inactive: 1.73.
In the case of AKPDSPEYKAACKLW [PB1_HUMAN_134_YA], the enrichment score was inactive: 1.14.
Still for that read-out and setting: in the case of GVRVRALYDADGQEQ [PACN1_HUMAN_394_YA] it was inactive: 1.07; in that of TDKSAEDYNSSNALN [PAK1_HUMAN_153], inactive: 0.651.
In the case of DDQSEAVYEEMKAPI [NYAP2_HUMAN_268_YA], the enrichment score was inactive: 0.958.
The same measure, in the same setting: to KTSNSQKYMSFTDKS [PAK1_HUMAN_142] belongs inactive: 1.6; to KLLCDKAYMASPDLE [PDK2_HUMAN_216_YA], inactive: 1.02.

The target of a further experiment is SHP2 C-SH2 domain wild-type. The description is as above. As to conditions: peptide library: Human pTyr.
As to VGEEEHVYSFPNKQK [PAXI_HUMAN_118], the enrichment score was inactive: 0.797.
For the molecule DENGSKGYAFVHFET [PABP4_HUMAN_140], the enrichment score is active: 6.33.
On the same count and under the same terms, to KMLCEQYYLVAPELE [PDK3_HUMAN_212] belongs inactive: 1.37; to VLQRTLHYECIVLVK [NUDT5_HUMAN_74], inactive: 2.25.
With VQKFQVAYLGNVPVA [APBB1_HUMAN_547_YA], the enrichment score is inactive: 1.38.
On the same count and under the same terms, in the case of YIGSTLSYFGLAAVF [P2RX7_HUMAN_343] it was inactive: 2.54; in that of TMMSVDRYIAVCHPV [OPRK_HUMAN_157], inactive: 1.44.
For the molecule GAEISGNYTKGGPDF [NUDC2_HUMAN_145], the enrichment score is inactive: 0.58.
Turning to NENTEDQYSLVEDDE [P85A_HUMAN_607], the enrichment score was inactive: 1.09.
For the molecule KVVDDEIYAFRKPIV [PB1_HUMAN_1289_YA], the enrichment score was inactive: 0.649.
SPAGRSIYNSFYVYC [PARK2_HUMAN_143]: the enrichment score is inactive: 2.66.
Same read-out and setting: in the case of MELQTARYHGHSMSD [PDHA1_HUMAN_289_YA] it was inactive: 0.524; in that of TSGQVEEYDLDADDI [AQP1_HUMAN_253], inactive: 1.58; in that of AKPDSPEYKAACKLW [PB1_HUMAN_134_YA], inactive: 1.1.
The same measure, in the same setting: to GVRVRALYDADGQEQ [PACN1_HUMAN_394_YA] belongs inactive: 1.01.
Turning to TDKSAEDYNSSNALN [PAK1_HUMAN_153], the enrichment score was inactive: 0.447.
Still for that read-out and setting: to DDQSEAVYEEMKAPI [NYAP2_HUMAN_268_YA] belongs inactive: 0.956; to KTSNSQKYMSFTDKS [PAK1_HUMAN_142], inactive: 1.2.
KLLCDKAYMASPDLE [PDK2_HUMAN_216_YA]: the enrichment score is inactive: 0.921.

For the next experiment, the target named is SHP2 N-SH2 domain L43F. Described as above. As to conditions: peptide library: Human pTyr.
Consider VGEEEHVYSFPNKQK [PAXI_HUMAN_118], for which the enrichment score is inactive: 0.801.
The same measure, in the same setting: to DENGSKGYAFVHFET [PABP4_HUMAN_140] belongs active: 6.15.
On the same count and under the same terms, to KMLCEQYYLVAPELE [PDK3_HUMAN_212] belongs inactive: 1.38; to VLQRTLHYECIVLVK [NUDT5_HUMAN_74], inactive: 1.95; to VQKFQVAYLGNVPVA [APBB1_HUMAN_547_YA], inactive: 0.899.
Take YIGSTLSYFGLAAVF [P2RX7_HUMAN_343]: the enrichment score was inactive: 2.21.
With TMMSVDRYIAVCHPV [OPRK_HUMAN_157], the enrichment score was inactive: 1.57.
In the case of GAEISGNYTKGGPDF [NUDC2_HUMAN_145], the enrichment score was inactive: 0.554.
Still for that read-out and setting: in the case of NENTEDQYSLVEDDE [P85A_HUMAN_607] it was inactive: 0.891; in that of KVVDDEIYAFRKPIV [PB1_HUMAN_1289_YA], inactive: 0.722.
Same read-out and setting: to SPAGRSIYNSFYVYC [PARK2_HUMAN_143] belongs inactive: 2.74; to MELQTARYHGHSMSD [PDHA1_HUMAN_289_YA], inactive: 0.573.
On the same count and under the same terms, to TSGQVEEYDLDADDI [AQP1_HUMAN_253] belongs inactive: 1.15; to AKPDSPEYKAACKLW [PB1_HUMAN_134_YA], inactive: 1.25; to GVRVRALYDADGQEQ [PACN1_HUMAN_394_YA], inactive: 0.875.
With TDKSAEDYNSSNALN [PAK1_HUMAN_153], the enrichment score was inactive: 0.708.
Same read-out and setting: in the case of DDQSEAVYEEMKAPI [NYAP2_HUMAN_268_YA] it was inactive: 0.924; in that of KTSNSQKYMSFTDKS [PAK1_HUMAN_142], inactive: 1.18; in that of KLLCDKAYMASPDLE [PDK2_HUMAN_216_YA], inactive: 0.944.

A further experiment deals with SHP2 N-SH2 domain T42A. The experiment is described as above. As to conditions: peptide library: Human pTyr.
As to VGEEEHVYSFPNKQK [PAXI_HUMAN_118], the enrichment score was inactive: 0.796.
Same read-out and setting: to DENGSKGYAFVHFET [PABP4_HUMAN_140] belongs active: 5.62.
As for KMLCEQYYLVAPELE [PDK3_HUMAN_212], the enrichment score is inactive: 1.39.
On the same count and under the same terms, in the case of VLQRTLHYECIVLVK [NUDT5_HUMAN_74] it was inactive: 2.36; in that of VQKFQVAYLGNVPVA [APBB1_HUMAN_547_YA], inactive: 1.
Consider YIGSTLSYFGLAAVF [P2RX7_HUMAN_343], for which the enrichment score is inactive: 2.28.
As for TMMSVDRYIAVCHPV [OPRK_HUMAN_157], the enrichment score was inactive: 1.33.
On to GAEISGNYTKGGPDF [NUDC2_HUMAN_145], for which the enrichment score was inactive: 0.566.
Still for that read-out and setting: in the case of NENTEDQYSLVEDDE [P85A_HUMAN_607] it was inactive: 0.936.
The same measure, in the same setting: to KVVDDEIYAFRKPIV [PB1_HUMAN_1289_YA] belongs inactive: 0.72; to SPAGRSIYNSFYVYC [PARK2_HUMAN_143], inactive: 2.65.
In the case of MELQTARYHGHSMSD [PDHA1_HUMAN_289_YA], the enrichment score was inactive: 0.566.
Still for that read-out and setting: to TSGQVEEYDLDADDI [AQP1_HUMAN_253] belongs inactive: 1.12; to AKPDSPEYKAACKLW [PB1_HUMAN_134_YA], inactive: 1.1.
On the same count and under the same terms, to GVRVRALYDADGQEQ [PACN1_HUMAN_394_YA] belongs inactive: 1.09.
In the case of TDKSAEDYNSSNALN [PAK1_HUMAN_153], the enrichment score is inactive: 0.727.
In the case of DDQSEAVYEEMKAPI [NYAP2_HUMAN_268_YA], the enrichment score is inactive: 1.53.
For KTSNSQKYMSFTDKS [PAK1_HUMAN_142], the enrichment score was inactive: 1.14.
Consider KLLCDKAYMASPDLE [PDK2_HUMAN_216_YA], for which the enrichment score was inactive: 0.832.

A further experiment concerns the target SHP2 N-SH2 domain T52S. The experiment is described as above. As to conditions: peptide library: Human pTyr.
As for VGEEEHVYSFPNKQK [PAXI_HUMAN_118], the enrichment score is inactive: 1.01.
On the same count and under the same terms, in the case of DENGSKGYAFVHFET [PABP4_HUMAN_140] it was active: 4.01; in that of KMLCEQYYLVAPELE [PDK3_HUMAN_212], inactive: 1.41.
In the case of VLQRTLHYECIVLVK [NUDT5_HUMAN_74], the enrichment score is inactive: 2.5.
With VQKFQVAYLGNVPVA [APBB1_HUMAN_547_YA], the enrichment score is inactive: 0.943.
On the same count and under the same terms, to YIGSTLSYFGLAAVF [P2RX7_HUMAN_343] belongs active: 3.76.
As for TMMSVDRYIAVCHPV [OPRK_HUMAN_157], the enrichment score was inactive: 1.54.
On the same count and under the same terms, in the case of GAEISGNYTKGGPDF [NUDC2_HUMAN_145] it was inactive: 0.49.
The same measure, in the same setting: to NENTEDQYSLVEDDE [P85A_HUMAN_607] belongs inactive: 1.28; to KVVDDEIYAFRKPIV [PB1_HUMAN_1289_YA], inactive: 0.861; to SPAGRSIYNSFYVYC [PARK2_HUMAN_143], inactive: 2.71.
Regarding MELQTARYHGHSMSD [PDHA1_HUMAN_289_YA], the enrichment score is inactive: 0.649.
Regarding TSGQVEEYDLDADDI [AQP1_HUMAN_253], the enrichment score is inactive: 1.36.
AKPDSPEYKAACKLW [PB1_HUMAN_134_YA]: the enrichment score was inactive: 1.31.
Still for that read-out and setting: in the case of GVRVRALYDADGQEQ [PACN1_HUMAN_394_YA] it was inactive: 1.05; in that of TDKSAEDYNSSNALN [PAK1_HUMAN_153], inactive: 0.651; in that of DDQSEAVYEEMKAPI [NYAP2_HUMAN_268_YA], inactive: 1.17.
The same measure, in the same setting: to KTSNSQKYMSFTDKS [PAK1_HUMAN_142] belongs inactive: 1.58; to KLLCDKAYMASPDLE [PDK2_HUMAN_216_YA], inactive: 0.997.

The next experiment concerns the target SHP2 N-SH2 domain wild-type. The experiment is described as above. As to conditions: peptide library: Human pTyr.
Take VGEEEHVYSFPNKQK [PAXI_HUMAN_118]: the enrichment score was inactive: 0.841.
Turning to DENGSKGYAFVHFET [PABP4_HUMAN_140], the enrichment score is inactive: 1.31.
Still for that read-out and setting: in the case of KMLCEQYYLVAPELE [PDK3_HUMAN_212] it was inactive: 1.72; in that of VLQRTLHYECIVLVK [NUDT5_HUMAN_74], inactive: 2.79; in that of VQKFQVAYLGNVPVA [APBB1_HUMAN_547_YA], inactive: 1.06.
Consider YIGSTLSYFGLAAVF [P2RX7_HUMAN_343], for which the enrichment score was inactive: 2.89.
Same read-out and setting: to TMMSVDRYIAVCHPV [OPRK_HUMAN_157] belongs inactive: 1.7; to GAEISGNYTKGGPDF [NUDC2_HUMAN_145], inactive: 0.723; to NENTEDQYSLVEDDE [P85A_HUMAN_607], inactive: 1.39.
As for KVVDDEIYAFRKPIV [PB1_HUMAN_1289_YA], the enrichment score was inactive: 0.733.
For SPAGRSIYNSFYVYC [PARK2_HUMAN_143], the enrichment score was active: 3.34.
The same measure, in the same setting: in the case of MELQTARYHGHSMSD [PDHA1_HUMAN_289_YA] it was inactive: 0.624; in that of TSGQVEEYDLDADDI [AQP1_HUMAN_253], inactive: 1.57.
Take AKPDSPEYKAACKLW [PB1_HUMAN_134_YA]: the enrichment score was inactive: 1.19.
Regarding GVRVRALYDADGQEQ [PACN1_HUMAN_394_YA], the enrichment score was inactive: 1.09.
The same measure, in the same setting: to TDKSAEDYNSSNALN [PAK1_HUMAN_153] belongs inactive: 0.601; to DDQSEAVYEEMKAPI [NYAP2_HUMAN_268_YA], inactive: 1.27; to KTSNSQKYMSFTDKS [PAK1_HUMAN_142], inactive: 1.32.
As to KLLCDKAYMASPDLE [PDK2_HUMAN_216_YA], the enrichment score was inactive: 1.04.

The record behind these values is the supplement of paper PMC10369915.
